Source: PubChem BioAssay AID256 (DTP/NCI, 2004)
Several values for one entry are separate records, joined by “and”; a condition that tells them apart may be missing. Equal values may be shown once. The source gives many values for each of these; only a part stands here. Inconclusive results and toxic doses are left out. Rule for the calls: active = survival T/C of 150% or more; inactive = T/C below 125% in these data.

Test system: CD2F1 mice, L1210 leukemia ip, survival T/C
Test: NCI In Vivo Anticancer Drug Screen. Data for tumor model L1210 Leukemia (intraperitoneal) in CD2F1 (CDF1) mice
Settings: endpoint: mean survival time, higher = longer survival
Method in brief: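 Vehicle-treated tumor-bearing mice served as controls (C) for compound-treated mice (T). Reported figure is T divided by C.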

Measured: T/C

Cc1cc(NCCCCCCNc2cc(C)nc3ccc(N)cc23)c2cc(N)ccc2n1
inactive: dose: 0.5 mg/kg/injection, schedule: Q08HX006 (iv), vehicle: saline with Tween-80 = 102 % of control | dose: 1.0 mg/kg/injection, schedule: Q08HX006 (iv), vehicle: saline with Tween-80 = 102 % of control | dose: 1.2 mg/kg/injection, schedule: Q01DX009 (ip), vehicle: saline with Tween-80 = 104 % of control and 107 % of control | dose: 1.9 mg/kg/injection, schedule: Q08HX006 (iv), vehicle: saline with Tween-80 = 103 % of control | dose: 1.94 mg/kg/injection, schedule: Q01DX005 (iv), vehicle: saline with Tween-80 = 102 % of control | dose: 1.94 mg/kg/injection, schedule: Q01DX009 (ip), vehicle: saline with Tween-80 = 104 % of control | dose: 1.94 mg/kg/injection, schedule: Q01DX009 (sc), vehicle: saline with Tween-80 = 101 % of control | dose: 2.25 mg/kg/injection, schedule: Q01DX009 (ip), vehicle: saline 110 % of control | dose: 2.53 mg/kg/injection, schedule: Q01DX009 (ip), vehicle: water 106 % of control | dose: 2.53 mg/kg/injection, schedule: Q01DX009 (sc), vehicle: water 101 % of control | dose: 2.58 mg/kg/injection, schedule: Q01DX009 (ip), vehicle: saline with Tween-80 = 109 % of control | dose: 2.58 mg/kg/injection, schedule: Q01DX009 (sc), vehicle: saline with Tween-80 = 102 % of control | dose: 3.38 mg/kg/injection, schedule: Q01DX009 (ip), vehicle: water 108 % of control | dose: 3.44 mg/kg/injection, schedule: Q01DX005 (iv), vehicle: saline with Tween-80 = 108 % of control | dose: 4.0 mg/kg/injection, schedule: Q01DX009 (ip), vehicle: saline with Tween-80 = 109 % of control | dose: 4.5 mg/kg/injection, schedule: Q01DX009 (ip), vehicle: saline 110 % of control | dose: 4.51 mg/kg/injection, schedule: Q01DX009 (sc), vehicle: water 102 % of control | dose: 4.59 mg/kg/injection, schedule: Q01DX005 (iv), vehicle: saline with Tween-80 = 102 % of control | dose: 4.7 mg/kg/injection, schedule: Q01DX009 (ip), vehicle: saline with Tween-80 = 111 % of control | dose: 6.01 mg/kg/injection, schedule: Q01DX009 (sc), vehicle: water 104 % of control | dose: 7.2 mg/kg/injection, schedule: Q01DX009 (ip), vehicle: saline with Tween-80 = 101 % of control | dose: 8.01 mg/kg/injection, schedule: Q01DX009 (sc), vehicle: water 108 % of control | dose: 8.2 mg/kg/injection, schedule: Q01DX005 (iv), vehicle: saline with Tween-80 = 102 % of control | dose: 10.7 mg/kg/injection, schedule: Q01DX009 (sc), vehicle: water 108 % of control | dose: 10.9 mg/kg/injection, schedule: Q01DX005 (iv), vehicle: saline with Tween-80 = 102 % of control and 112 % of control | dose: 12.8 mg/kg/injection, schedule: Q01DX009 (ip), vehicle: saline with Tween-80 = 106 % of control | dose: 14.2 mg/kg/injection, schedule: Q01DX009 (sc), vehicle: water 110 % of control | dose: 14.5 mg/kg/injection, schedule: Q01DX005 (iv), vehicle: saline with Tween-80 = 109 % of control and 112 % of control | dose: 14.5 mg/kg/injection, schedule: Q01DX009 (sc), vehicle: saline with Tween-80 = 106 % of control | dose: 15.3 mg/kg/injection, schedule: Q08HX006 (iv), vehicle: saline with Tween-80 = 102 % of control | dose: 61.2 mg/kg/injection, schedule: Q08HX009 (iv), vehicle: saline with Tween-80 = 104 % of control | dose: 100.0 mg/kg/injection, schedule: Q04DX003 (ip), vehicle: saline 112 % of control | dose: 300.0 mg/kg/injection, schedule: Q04DX003 (ip), vehicle: saline with Tween-80 = 101 % of control
